This passage reports self-cleavage results from the RNAGym collection of RNA variant scans (doi:10.7554/elife.90254).

The labels stand for the following.
B1: LINE1-full (parent)
chain: UACGUAGGUGGUUUUCCCCUGAUAGUGCUAAGGGGGCCUGGAAGUUUGGACUGGGCAGAGCUCAACACAGCGUGGCAAAGUGGCUGUGGCUAGACUGCCUCUCUGGAUUCCUCGUCACUCAGCAGGGCAUCUCUGAGAGAAAUGCC

The source gives no read counts; variants with many changes may rest on few reads.

In the series the parent is B1. Put plainly: self-cleavage, relative activity (ratio to wild type); higher = more cleavage; in vitro, sequencing; the parent is a self-cleaving ribozyme.
Consider A30U A64U A136U, for which the self-cleavage was determined as 0.62.
With A30U A64G U115C the figure was 0.36.
With A30G U47C A79G U85C the figure was 0; with A31G G32A G44A G74A U119C U130C, 1.5.
With A30G G48U A140U the figure was 0.62; with A30U U109C A136G, 1.68.
In the case of A30G A42G A117G, the self-cleavage came to 1.02.
The figure for A30G A92G A129G is 0; for A30G U96C U132A it is 0.08; for A30G U39C A65G C98G C131G it is 0.
The figure for A30U U109G G125U is 0.39; for A30G U112C A140G it is 0.98.
With A30G A42G U62A U85A the figure was 0.28.
For A30U A79U U108C A141G, the self-cleavage came to 0.84.
With A30G A94U U115C the figure was 0.6; with A30U A64U U73C A79G A117G, 0; with A30U U73C U119C, 0.88.
The figure for A31G A94U A124U is 0.16.
With A31G A43G U47C U73A A79G the figure was 1.15; with A30G A79G U132C, 1.15; with A31G A65U U115C U130A, 0.37.
On to A30G C38U A57G U109C, for which the self-cleavage was determined as 0.89.
The figure for A30G G60U A142G is 0.06.
The figure for A31C U39C U109C U130C is 1.15.
The figure for A30G A92G U104C A141G is 0; for A31G A94G U115C it is 0.77.
As for A31G A94U U104A U115A A136G, the self-cleavage amounted to 0.44.
With A31G U47A A117G C131A the figure was 1.56; with A31G A94G U100C, 0.71; with A30G U47A A67G C90U A107G A117U A129U, 0.13.
A30U A77G U134C: the self-cleavage worked out at 0.
With A30U A79C U81C U87C the figure was 0; with A30G G34A U46C, 1.21; with A31G G35U A79G A94G G125U A136G, 0.32.
With A30U U96A U119C the figure was 0.03.
The figure for A30U A31G C38G is 0.9; for A30G U47C U62C A94G G127A it is 0; for A30U U46C A59U A121U U134C it is 0.99.
A30G U39C G54A U87C A117G: the self-cleavage turned out to be 0.
For the variant A31G A42G A67U, the self-cleavage came out at 0.11.
The figure for A31C G32U G35A A65U G83A U119C is 0.05; for A30G A79G U132A A138G it is 0.46.
With A30G U100C A124U A129G the figure was 0; with A31C U62C U87A, 0.06.
With A30G A69G A124U A138G the figure was 1.31; with A30G U62A A65G A94G, 0; with A30U U62A U108C, 0.06.
For the variant A31G A59G U112C, the self-cleavage amounted to 0.77.
With A31G A64U A94G the figure was 0.18; with A30G A42G A50G, 0; with A30U U81C U85C A92U A136U U143C, 0.24.
The figure for A30G U47G G53A A79G U134G is 0.81; for A30G A65G A79G A140G it is 0.38; for A31G C84U U104C C113U it is 0.09.
The figure for A30U A117G A121U is 1.28.
Regarding A30G A65G A117U, the self-cleavage is 0.28.
With A31G U39C G114A the figure was 1.49.
With A31G A57G A107G U115C the figure was 0.
Turning to U29G A50G A77G, the self-cleavage was found to be 1.84.
As to A30G U104C A121U, the self-cleavage is 2.69.
The figure for A31C A140G A142C is 0.66; for A30G A138G A140U it is 1.06; for A30G U115A C128G it is 1.36.
With A30G U45C U47C U100A A138G the figure was 0.84; with A31G U39C U104A A121U, 0.32.
As to A30G A69G G74A U87A, the self-cleavage came out at 0.14.
With A31G A92U U112C A129G U143A the figure was 0.94; with A30U U73C A77G C84U U96C, 0.22.
Take A30U U45C C71U: the self-cleavage was 0.98.
The figure for A31G A42G U52A is 2.22; for A30G G106C U115C it is 2.87; for A30G U52C A77U U91C it is 0.84.
On to A30G U100A U102C, for which the self-cleavage is 0.77.
With U29G A78G U134C the figure was 2.51; with A31G U46A U115A, 0.24.
With A30C U62C U85G U134C U143A the figure was 0.
With A30G U47C U115C the figure was 2.95; with A30G U119C A136U A140U, 0.96; with A30U C63U A141G, 0.35.
For the variant A30G U100C A121U, the self-cleavage was determined as 0.78.
As for A30G C98G U108C, the self-cleavage is 0.77.
With A30G A31G A142G the figure was 1.
With A31C A67G U96A the figure was 0.14; with A30G A59U A64G G83A U102C, 0; with A31C A42G A136G, 0.72.
The figure for A30U U52C A94C U130C A142G is 0; for A30G A42U U87C it is 0.34.
Take A30G G33A A42G: the self-cleavage was 0.8.
With A30G A50G C113A A129U the figure was 1.41; with A30G A64U A65G A92G, 0; with A30G A65G U108C A141C, 0.
The figure for A30G C90U G122A is 0.08; for A31G A94G U132A it is 0.27.
Consider A31G A42G U109A U115A, for which the self-cleavage turned out to be 0.71.
A30G U62A U96A: the self-cleavage was 0.08.
The figure for A30G U46A U130C is 1.05; for A30G A64G U132C it is 0.77; for A31G A43G U62C it is 0.19.
With A30U C63U A78G U100C A107G the figure was 0.9; with A30G G48U A129C A140G A142G, 1.21; with A30G G34A A67G, 0.
With A30G A59G A138G the figure was 0.73; with A30G U39C A65G U119A A140G, 1.15.
Consider A30G A117U A138G A140G, for which the self-cleavage was 0.38.
On to A30G U96A A138G, for which the self-cleavage is 0.15.
The figure for A30G A65U A142G is 0.43; for A30G A42G A43G A121C it is 1.45.
The figure for A30G A57G G82A is 1.34.
As to A30U G33U C76U A94G, the self-cleavage was 0.5.
The figure for A30U C71U A94G U108A A141G is 0.2.
As to A30U A59U U112C, the self-cleavage amounted to 0.68.
For the variant A30U U39G U132C, the self-cleavage turned out to be 0.92.
Regarding A31G U46C A57G, the self-cleavage came out at 0.41.
The figure for A31G G34A U52C A141G is 1.03; for A30G A42U U45C A142U it is 0.75; for A31G G33U C99U it is 0.61.
Turning to A31C G49A U62A A67G, the self-cleavage came to 0.11.
As to A31G G86A U96C, the self-cleavage stood at 0.
Turning to A31G A78G A129U, the self-cleavage is 2.3.
Regarding A30G U45C U47A U52A U87A, the self-cleavage was 0.18.
The figure for A30G A57G G126U is 0; for U29G A64U U85C it is 0.11.
The figure for A30G A69G A78G U104C is 1.31; for A30G A59G U115A A129C it is 0.46.
The figure for A30G A64G U102A U109C is 1.62.
In the case of A30G A59G A140G, the self-cleavage turned out to be 0.33.
With A30U G53A A92G G125U, the self-cleavage is 0.06.
With A30G A42G U47A A121G the figure was 1.49; with A30U U73G U104A, 0.84; with A30U G40U A141G, 1.27.
Take A30G A107G A124U A138G U143C: the self-cleavage is 2.04.
The figure for A31G A57U U85C is 0.
With A30U G36A A140G the figure was 0.31; with A30U A77G U115C A142G, 0.92.
The figure for A31G A57U U112C U119C is 0; for A30G A57G U96C it is 1.84.
As for A30G A138U A140G, the self-cleavage came to 1.48.
Regarding A30U U47C G97A U112A, the self-cleavage turned out to be 0.34.
With A30G A59G A94U the figure was 0.
With A31G A67U A69U the figure was 0.08.
For A31G A50G A138G, the self-cleavage came out at 0.26.
The figure for A30G A59C U96C is 0; for A31G G36U A43U it is 0.86; for A31G A78G U109G it is 1.71.
With A30G A57U A140U the figure was 0.58; with A31G A67U A69G G83C A107G, 0; with A31G A50G U73A C98U, 0.11.
Consider A30G C37A A59U A129U, for which the self-cleavage stood at 0.24.
With A31G U47A U52C the figure was 0.61.
As to A30U A77G U102C, the self-cleavage worked out at 1.24.
With A30G A67U A129U U132C the figure was 0.24; with A30G U46C A65U, 0.21.
The figure for A31G A78G U119A is 1.53; for A31G A42G A117C U130C A138U it is 2.45.
The figure for A31G A124G A142G U143A is 1.05.
For the variant A30U A117U A124U, the self-cleavage was 0.79.
With A30U A59U A141G the figure was 1; with A30G U100C U102C C146A, 2.63.
Regarding U29G U73G C116U, the self-cleavage amounted to 0.84.
With A31G A94U G144A the figure was 0.14; with A30G A57G U100C, 0; with A30G G32C U45C, 0.92.
With A31G G40A U52C, the self-cleavage is 1.63.
The figure for A30U U45A U47A A78U is 1.34; for A31G C68A A142G it is 0.02; for A30G G55A U119C U130C it is 2.3.
The figure for A30U A107G U108A A121G U132C is 0.
